# Experimental data reported in the RNAGym collection of RNA variant scans (doi:10.7554/elife.90254).
# The source gives no read counts; variants with many changes may rest on few reads.
# B1: OR4K15 (parent)
# chain: GUUAACGGUCAUAGGCCAUGGAAACUAGGAGCACCAUUUCGCUGCCAGUGAAGAAAUGAACAAAGAAAAUCUGGGCCAGGCAGGCAUCAAAAGAAAUAGUCUUGCGCUCAACCAGAAAGUCUGUAAUCAUUUUAAGGGUA
# Variants of: B1
# Assay: self-cleavage, relative activity (ratio to wild type); higher = more cleavage; in vitro, sequencing; the parent is a self-cleaving ribozyme
row,Variant,self-cleavage
1,U3C U37A U49C A63U A89G,0.44
2,A30G U38A A54G A95G C121U,2.34
3,A33G A67U A118G,0.7
4,A52G A62G U103C A140G,1.33
5,U49C U57C A66G,0.78
6,U39A A51G A91G U132C,0.4
7,A55G A86C A116U,0.1
8,A5G A33G A60G A91G,0.66
9,U9C A67G A90U A92G U103C A111G,0.01
10,G7A A51G A126G,1.39
11,U12C U39A U49A U57C A82G A89G U122C,0.21
12,A54G A111G A118G,0
13,A52G A59G A134G,1.07
14,A36C U49C C105U U130C,0.04
15,A23G U70C G73U A117G,0.14
16,A22G A52G A89G,0.52
17,A52U A95U A114G C121A,1.22
18,U9C A55U U87C,2.71
19,U3C A95G A110C U127C,0.28
20,A68G A86G A129C A134G,0.98
21,U9A A64G A66G A78U A82G U100C A118G U127C,0.11

row,Variant,self-cleavage
1,A33G A117G U124C,0.4
2,A22G U49C A69G C128U,0.89
3,A23G U57C A82U,0.26
4,A5U A63G A117G,1.57
5,U38C A62G A86U U102C A125G,1.56
6,A27G C40U A96G A140C,1.1
7,U19C G53U G58A A140G,1.37
8,U43C A116G U124C U132C A140U,0.29
9,U37C U102A U127A,1.09
10,A22U A52G A110U A126G,0.35
11,U12A U43C A60G U131C,1.2
12,A5G U37C A51G A82G A135G,0.52
13,G20A A62G A89C A90G U139C,0.9
14,U19C A62G A90G G137A,0.42
15,A47G A89U A140G,1.31
16,A23G A59G C61A G80U A94G A96G A114G,0.03
17,U3A A60G A95G,1.05
18,A5C A22G U26C A51G U102C A116G U122C A126G,1.15
19,A22G U49C U108A U122C,0.02
20,A30G A47G A67G U97C,0.81
21,U2C U26C A67U A68G,1.35

row,Variant,self-cleavage
1,A66G C77U U122C A140G,1.54
2,A11U A23G C85U,0.36
3,U19C A33U U37G U43G A56G,1.35
4,A24G A60C A78G G106A,0.02
5,A62U U100A U122C,0.81
6,U39C U87C A91U A96G,1.76
7,A18G A23U U38C A52G,0.59
8,U19C A23G A52G U132A,0.35
9,A4G A51U A52C,1.29
10,U39C G41U U97C U122C,2.11
11,A23G C46U A92G A114G,0.38
12,G21C A92G U130C,0.43
13,G20A U37A A67U,1.79
14,A18G A110G A118G,0.23
15,U43C A55G A68G U120C,0.53
16,U19C A62G A94U,0.39
17,A22G A23G A55G A60G A64U,0.72
18,U2C A110G A118G A125U,0.17
19,G21A A62G U87C,0.54
20,A11G A52G A55U A78U,0.12
21,A23G U39A A66G A82U,0.09

row,Variant,self-cleavage
1,G20U A23G A47G U57C U87C,0.71
2,A4G A52G A126G,0.57
3,A91G A94G A135U,0.9
4,A91G C105U A111G,0
5,U9C A90G A116G,0.58
6,A30G U49C A60G,1.58
7,U57C A96G U131C,0.98
8,U12C A24G G136U,1.67
9,A18G U38C A117G U131C,2.15
10,A89U A134G U139C,0.61
11,A30G C46A A56G A66U A82U A90G,0.22
12,U43C A94G C109U,0.47
13,G8A A91U A111G A126G U131C U139C,0.02
14,U2A A5G A47G U131C,1.63
15,A24G A52G U103A,1.18
16,A24G A67G U108A A118G U130C,0
17,A68G U70C A98G,0.25
18,A24G A33U A135G,1.25
19,A11G A64G U103C G106A,0.06
20,U38C A56G U100C A125G U131C,1.48
21,A59G A69G A96G A129U,0.67
